In PMC4336329 (PLoS ONE, 2015):
Out of some 310,000 compounds screened, about 2,200 (0.71%) showed an effect of 50% or more. The effect is printed as a negative number. This is one part of the list.

The molecules below were run against human ether-à-go-go-related gene (hERG) potassium channel (human, UniProt Q12809) (assay: primary screen, population patch clamp on CHO cells stably expressing hERG).
Sequence of human ether-à-go-go-related gene (hERG) potassium channel (Q12809 whole entry, looked up): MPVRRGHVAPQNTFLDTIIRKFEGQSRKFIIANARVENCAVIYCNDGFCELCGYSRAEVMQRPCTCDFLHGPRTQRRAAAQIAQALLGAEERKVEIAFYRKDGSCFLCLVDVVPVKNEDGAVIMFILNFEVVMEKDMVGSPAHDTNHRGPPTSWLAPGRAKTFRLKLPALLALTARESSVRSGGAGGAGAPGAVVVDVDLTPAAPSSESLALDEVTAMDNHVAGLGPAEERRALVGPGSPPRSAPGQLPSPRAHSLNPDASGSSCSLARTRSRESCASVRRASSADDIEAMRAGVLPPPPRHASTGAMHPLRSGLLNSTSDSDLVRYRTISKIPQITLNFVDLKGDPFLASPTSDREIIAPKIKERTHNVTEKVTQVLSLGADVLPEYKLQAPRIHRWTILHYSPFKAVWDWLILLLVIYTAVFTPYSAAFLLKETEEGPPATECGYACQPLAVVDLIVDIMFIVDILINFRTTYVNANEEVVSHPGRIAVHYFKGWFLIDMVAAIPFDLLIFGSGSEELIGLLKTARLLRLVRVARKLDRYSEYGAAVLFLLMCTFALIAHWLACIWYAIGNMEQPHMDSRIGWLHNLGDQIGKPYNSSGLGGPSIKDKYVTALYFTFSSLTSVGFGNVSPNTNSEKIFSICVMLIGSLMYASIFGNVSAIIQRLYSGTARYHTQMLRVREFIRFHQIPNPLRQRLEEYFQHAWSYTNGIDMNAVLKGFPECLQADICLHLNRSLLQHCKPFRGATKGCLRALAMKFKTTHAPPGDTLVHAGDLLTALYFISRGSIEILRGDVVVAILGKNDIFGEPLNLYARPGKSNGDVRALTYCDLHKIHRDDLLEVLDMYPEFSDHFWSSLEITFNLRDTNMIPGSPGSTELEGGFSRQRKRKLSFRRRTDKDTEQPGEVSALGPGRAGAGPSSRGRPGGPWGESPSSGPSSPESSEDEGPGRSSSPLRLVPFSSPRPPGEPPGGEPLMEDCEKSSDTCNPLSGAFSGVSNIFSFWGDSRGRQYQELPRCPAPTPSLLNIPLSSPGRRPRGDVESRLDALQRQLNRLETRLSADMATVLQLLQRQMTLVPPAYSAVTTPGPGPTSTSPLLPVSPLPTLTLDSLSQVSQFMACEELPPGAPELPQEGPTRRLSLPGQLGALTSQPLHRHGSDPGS

Compared with `COCCNC(=S)N1CCC(Cc2ccccc2)CC1`, `O=C(CN1CCN(Cc2ccccc2)CC1)Nc1ccccc1` is higher in “hERG current change (%, negative = inhibition) at 1uM” value: 4.89% for the first, 9.31% for the second.

Going from `Cc1c(Nc2nc(-c3ccc(Cl)cc3)cs2)c(=O)n(-c2ccccc2)n1C` to `Cc1c(Nc2nc3ccccc3nc2NS(=O)(=O)c2cccs2)c(=O)n(-c2ccccc2)n1C`, the “hERG current change (%, negative = inhibition) at 1uM” value falls from 3.28% to 0.391%.

Going from `COc1ccc(C/C(N)=N/OC(=O)Cc2ccccc2)cc1OC` to `COc1ccc(CC(=O)OCC(=O)N2N=C(c3ccccc3)CC2c2ccc(OC)cc2)cc1` (stereo not shown), the “hERG current change (%, negative = inhibition) at 1uM” value rises from 6.37% to 8.65%.

Compared with `S=c1[nH]nc(-c2cc(-c3ccccc3)n[nH]2)n1/N=C/C(Br)=C/c1ccccc1`, `COc1ccc(-c2n[nH]c(=S)n2/N=C/C=C\c2ccccc2OC)cc1` is higher in “hERG current change (%, negative = inhibition) at 1uM” value: 11.1% for the first, 21.1% for the second.

Compared with `Cc1cc(=O)oc2c(N)c(O)ccc12`, `Cc1ccc2nsnc2c1-n1c(C)nc2ccccc2c1=O` is higher in “hERG current change (%, negative = inhibition) at 1uM” value: 8.02% for the first, 13% for the second.

Compared with `CCOC(=O)c1cc(NC(=O)C2CCCO2)cc(C(=O)OCC)c1` (stereo not shown), `CCCc1cc(C(=O)Nc2sc(C(C)=O)c(C)c2C(=O)OCC)no1` is higher in “hERG current change (%, negative = inhibition) at 1uM” value: -1.88% for the first, 0.0946% for the second.

Going from `Cc1ccc(S(=O)(=O)NCCCCCC(=O)Nc2ccccc2)cc1` to `CNc1ccc(S(=O)(=O)NCC(=O)NCCCc2ccccc2)cc1[N+](=O)[O-]`, the “hERG current change (%, negative = inhibition) at 1uM” value rises from 4.13% to 9.74%.

Compared with `CC1(C)CC(=O)c2cc3c(nc2C1)CC(C)(C)CC3=O`, `COc1ccc(C(C)=O)cc1CN1C(=O)NC2(CCCCC2)C1=O` is higher in “hERG current change (%, negative = inhibition) at 1uM” value: 6.3% for the first, 10.3% for the second.

Compared with `CCOC(=O)CCCNC(=O)CCNC(=O)c1ccc(OCC(C)C)cc1`, `CCCCOC(=O)Nc1nnc(/C=C/c2ccc(OC)cc2)s1` is lower in “hERG current change (%, negative = inhibition) at 1uM” value: 8.96% for the first, 8.95% for the second.

Compared with `COC(=O)C1=C(SC)N(c2ccc(OC)cc2)C(c2ccccc2)CC1=O` (stereo not shown), `COc1ccc(NC(=O)N2CCn3c2nc2ccccc23)cc1` is lower in “hERG current change (%, negative = inhibition) at 1uM” value: -3.13% for the first, -5.98% for the second.

Going from `N=C1C=CC=C2C1=NC1(CCCCC1)N2O` to `Cc1ccc(S(=O)(=O)n2nc(OC(=O)C3CCCCC3)cc2N)cc1`, the “hERG current change (%, negative = inhibition) at 1uM” value falls from 12.5% to -1.51%.

Going from `O=C(Nc1nccs1)c1cc(-c2ccccn2)nc2c(Cl)cccc12` to `CC1=C(C(=O)Nc2ccccn2)C(c2ccc(F)cc2)n2ncnc2N1` (stereo not shown), the “hERG current change (%, negative = inhibition) at 1uM” value rises from 7.21% to 7.26%.

Going from `C=CCn1c(O)c(C=NCCN2CCNCC2)c(=O)[nH]c1=O` to `CN(C)CCCN=Cc1c(O)n(Cc2ccc3c(c2)OCO3)c(=O)c2ccccc12`, the “hERG current change (%, negative = inhibition) at 1uM” value falls from 10.3% to -3.18%.

Going from `COc1ccc(N(CC(O)CN2CCOCC2)S(=O)(=O)c2ccccc2)cc1` (stereo not shown) to `COc1ccc(/C(O)=C2/C(=O)C(=O)N(CCCN3CCOCC3)C2c2ccc(C)cc2)cc1` (stereo not shown), the “hERG current change (%, negative = inhibition) at 1uM” value rises from 12.1% to 20%.

First: COc1ccc(NS(=O)(=O)c2cc(NC(=O)C3CC3)ccc2N2CCCCC2)cc1
Second: COC(=O)/C(=C\C(=O)c1ccc([N+](=O)[O-])cc1)Nc1ccc(OC)cc1
The “hERG current change (%, negative = inhibition) at 1uM” value of the first is lower: 10.2% for the first, 14.4% for the second.

Compared with `Cc1cccc(OCC(=O)Nc2ccccc2N2CCN(C(=O)C(C)C)CC2)c1C`, `Cc1cccc(N2CC(C(=O)NCC3COc4ccccc4O3)CC2=O)c1C` (stereo not shown) is lower in “hERG current change (%, negative = inhibition) at 1uM” value: 4.26% for the first, 1.12% for the second.

Going from `COC(=O)c1cccc(NC(=O)c2cc3ccccc3o2)c1` to `C#CCn1cc(/C=N/NC(=O)c2cc3ccccc3o2)c2ccccc21`, the “hERG current change (%, negative = inhibition) at 1uM” value rises from 5.16% to 15.5%.

Going from `Clc1ccc(OCCSCc2nc3ccccc3[nH]2)cc1` to `Br.COc1ccc(C(=O)Cn2c(NCCO)nc3ccccc32)cc1`, the “hERG current change (%, negative = inhibition) at 1uM” value rises from -0.246% to 4.51%.

Compared with `COc1cccc(N2C(=O)C3CCCN3C2c2ccc(N(C)C)cc2)c1` (stereo not shown), `COC(=O)C1(CO)NC(c2ccc(C)cc2)C2C(=O)N(c3ccccc3)C(=O)C21` (stereo not shown) is higher in “hERG current change (%, negative = inhibition) at 1uM” value: 6.82% for the first, 8.82% for the second.

First: O=C(CNC(=O)C(c1ccccc1)c1ccccc1)N/N=C/c1ccc(O)cc1O
Second: CC(=O)/C(C(=N)N1CCN(C(c2ccccc2)c2ccccc2)CC1)=C(\C)O
The “hERG current change (%, negative = inhibition) at 1uM” value of the first is lower: -4.92% for the first, 4.08% for the second.

First: OCC[C@@H]1C[C@@H](O)[C@H](O)[C@@]2(CCCO2)O1
Second: Cc1cc(NC(=O)CN2CCCC(C)C2)no1.O=C(O)C(=O)O (stereo not shown)
The “hERG current change (%, negative = inhibition) at 1uM” value of the first is lower: 5.71% for the first, 9.92% for the second.

First: COc1ccc(C(=O)CSc2ccc3nnc(-c4cccnc4)n3n2)cc1
Second: Cc1ccc(CNC(=O)c2ccccc2-n2cnnn2)cc1
The “hERG current change (%, negative = inhibition) at 1uM” value of the first is lower: -5.91% for the first, 12.3% for the second.

Going from `C=CCc1cc(Cl)ccc1OCCn1ccnc1.O=C(O)C(=O)O` to `N#CCCCCn1ccc(NC(=O)c2ccc(Cl)cc2O)n1`, the “hERG current change (%, negative = inhibition) at 1uM” value rises from 4.9% to 13.7%.

Compared with `COc1ccc(-c2nn[nH]n2)cc1OC`, `COc1cc(C2c3[nH]c4ccccc4c3C[C@@H]3C(=O)N(Cc4ccco4)CC(=O)N23)cc(OC)c1OC` (stereo partly shown) is lower in “hERG current change (%, negative = inhibition) at 1uM” value: 12.2% for the first, 3.78% for the second.

Compared with `N#CCCN(CCC#N)S(=O)(=O)c1ccc(C(=O)Nc2nnc(C3=COCCO3)o2)cc1`, `Cc1ccc(N(C)S(=O)(=O)c2cccc(C(=O)NCCCN3CCCC3=O)c2)cc1` is lower in “hERG current change (%, negative = inhibition) at 1uM” value: 14.9% for the first, 6.58% for the second.

First: Cc1cc(-c2ccc(C)c(S(=O)(=O)N3CCN(C(=O)c4ccco4)CC3)c2)on1
Second: O=C(c1ccccc1)N1CCN(c2ccc([N+](=O)[O-])c(NCc3ccco3)c2)CC1
The “hERG current change (%, negative = inhibition) at 1uM” value of the first is lower: -4.76% for the first, 3.03% for the second.

Compared with `CN(C)C(CNC(=S)Nc1cccc(Cl)c1)c1ccccc1` (stereo not shown), `COc1ccc(Cl)cc1NC(=O)CN(C)CC(=O)Nc1ccccc1-c1ccccc1` is higher in “hERG current change (%, negative = inhibition) at 1uM” value: 4.46% for the first, 7.14% for the second.

Compared with `O=C1C2C3C=CC(CC3)C2C(=O)N1c1ccc2c(c1)OCO2` (stereo not shown), `COc1cc(NC(=O)C2C3C=CC(C3)C2C(=O)O)ccc1NC(=O)c1ccccc1` (stereo not shown) is higher in “hERG current change (%, negative = inhibition) at 1uM” value: 12.6% for the first, 15.2% for the second.

Compared with `CCN1CCN(c2nc3ccccn3c(=O)c2C=O)CC1`, `O=C(Nc1cccc2ccccc12)N1CCN(Cc2ccccc2)CC1` is higher in “hERG current change (%, negative = inhibition) at 1uM” value: 2.22% for the first, 5.63% for the second.

Compared with `CCCCCOc1ccc(Br)cc1/C(C)=N/NC1=NCCN1`, `Cc1cc(C)nc(SCCCNCc2ccc(Br)cc2)n1.Cl` is higher in “hERG current change (%, negative = inhibition) at 1uM” value: -3.01% for the first, 0.685% for the second.

Going from `Cc1nn(-c2ccccc2)c(Cl)c1/C=N/NC(=O)c1cccc(S(=O)(=O)N2CCCC2)c1` to `CC(=O)c1cccc(NC(=O)N2CCCC2C(=O)Nc2ccccc2C)c1` (stereo not shown), the “hERG current change (%, negative = inhibition) at 1uM” value falls from 25.5% to 0.19%.

Going from `CN1CCC2(CC1)C1CN(C)CC=C1C(C#N)=C(N)C2(C#N)C#N.O.[OH-]` (stereo not shown) to `O=C1CCC(C(=O)N2CCC(CO)(Cc3ccc(Cl)cc3)CC2)=NN1`, the “hERG current change (%, negative = inhibition) at 1uM” value falls from 13.2% to 2.9%.

First: COC(=O)/C=C1/S/C(=N/N=C/c2ccco2)NC1=O
Second: COC(=O)c1c(NC(=O)c2cccnc2)sc(C)c1C
The “hERG current change (%, negative = inhibition) at 1uM” value of the first is higher: 17.1% for the first, -4.63% for the second.

Compared with `Cc1ccc(Cl)cc1NC(=O)C1CC(=O)N(C(C)C)C1` (stereo not shown), `Cc1ccc(CCN2CC(C(=O)NCc3cccnc3)CC2=O)cc1` (stereo not shown) is lower in “hERG current change (%, negative = inhibition) at 1uM” value: 11.5% for the first, 6.73% for the second.

Going from `Cc1c(OCc2ccccc2)cccc1OCc1ccccc1` to `O=C(c1ccc(-c2ccccc2)cc1)c1ccc([N+](=O)[O-])cc1`, the “hERG current change (%, negative = inhibition) at 1uM” value falls from 16.6% to 11.5%.

First: Cc1ccc(S(=O)(=O)NCC2CCC(C(=O)NCc3cccs3)CC2)cc1 (stereo not shown)
Second: Cc1ccc(NC2=C(Cl)C(=O)N(C3CCCCC3)C2=O)cc1
The “hERG current change (%, negative = inhibition) at 1uM” value of the first is lower: 16.3% for the first, 17.2% for the second.

Going from `CN(CCO)c1ncnc2c1sc1nc(N3CCOCC3)c3c(c12)CCC3` to `CN(C)c1nc(SCC(=O)Nc2ccccc2)nc(N2CCOCC2)n1`, the “hERG current change (%, negative = inhibition) at 1uM” value rises from 3.68% to 13.9%.

Going from `CCCn1c(SCC(=O)Nc2ccc(NC(C)=O)cc2)nc2c1c(=O)n(C)c(=O)n2C` to `Cc1cc(C(=O)COC(=O)CCCN2C(=O)c3ccccc3C2=O)c(C)n1C`, the “hERG current change (%, negative = inhibition) at 1uM” value rises from 1.36% to 5.18%.

First: O=C(Nc1ccc(N2CCOCC2)cc1)c1ccc(Br)o1
Second: O=C(O)c1ccc(S(=O)(=O)N2CCOCC2)o1
The “hERG current change (%, negative = inhibition) at 1uM” value of the first is lower: 10.1% for the first, 15.7% for the second.

Going from `COc1ccc(C)cc1NC(=O)c1ccc2c(=O)n3c(nc2c1)CCCCC3` to `COCC(=O)N1CCC(Oc2ccc(C(=O)N(C)C3CCCCC3)cc2)CC1`, the “hERG current change (%, negative = inhibition) at 1uM” value rises from 5.61% to 13.7%.

Compared with `CO/N=C/c1ccc(Sc2ccccc2N)c([N+](=O)[O-])c1`, `Cc1cc(C(=O)NNC(=O)/C=C/c2ccccc2Cl)c(C)o1` is higher in “hERG current change (%, negative = inhibition) at 1uM” value: 3.17% for the first, 9.59% for the second.

Compared with `O=C(NC1CCCC1)C(=O)N(Cc1cccnc1)C(C(=O)NC1CCCC1)c1ccco1` (stereo not shown), `COc1cccc(NC(=O)C2C3C=CC4(O3)C2C(=O)N(CCCN2CCCC(C)C2)C4C(=O)NC2CCCCC2C)c1` (stereo not shown) is higher in “hERG current change (%, negative = inhibition) at 1uM” value: 3.81% for the first, 16.9% for the second.

First: Cc1c(C(=O)/C=C/N(C)C)nnn1-c1ccc(Cl)c(Cl)c1
Second: COc1cccc(NS(=O)(=O)c2cc(C)sc2C)c1
The “hERG current change (%, negative = inhibition) at 1uM” value of the first is lower: 4.58% for the first, 13.2% for the second.

First: Cn1c(=O)[nH]c(=O)c2c1nc(NCCCn1ccnc1)n2Cc1cccc(Br)c1
Second: CCc1cccc2c(=O)c(C(=O)N3CCOCC3)c[nH]c12
The “hERG current change (%, negative = inhibition) at 1uM” value of the first is lower: -2.32% for the first, -1.82% for the second.
